Results on 46 molecules are retold here after PMC4336329 (PLoS ONE, 2015).

Structures are written as SMILES. Screen size: about 310,000 compounds; about 2,200 (0.71%) showed an effect of 50% or more. The effect is printed as a negative number. The list shows a part of the results.

The target in this assay is human ether-à-go-go-related gene (hERG) potassium channel (human, UniProt Q12809). Kind of assay: primary screen, population patch clamp on CHO cells stably expressing hERG.
Chain of human ether-à-go-go-related gene (hERG) potassium channel (Q12809 whole entry, looked up): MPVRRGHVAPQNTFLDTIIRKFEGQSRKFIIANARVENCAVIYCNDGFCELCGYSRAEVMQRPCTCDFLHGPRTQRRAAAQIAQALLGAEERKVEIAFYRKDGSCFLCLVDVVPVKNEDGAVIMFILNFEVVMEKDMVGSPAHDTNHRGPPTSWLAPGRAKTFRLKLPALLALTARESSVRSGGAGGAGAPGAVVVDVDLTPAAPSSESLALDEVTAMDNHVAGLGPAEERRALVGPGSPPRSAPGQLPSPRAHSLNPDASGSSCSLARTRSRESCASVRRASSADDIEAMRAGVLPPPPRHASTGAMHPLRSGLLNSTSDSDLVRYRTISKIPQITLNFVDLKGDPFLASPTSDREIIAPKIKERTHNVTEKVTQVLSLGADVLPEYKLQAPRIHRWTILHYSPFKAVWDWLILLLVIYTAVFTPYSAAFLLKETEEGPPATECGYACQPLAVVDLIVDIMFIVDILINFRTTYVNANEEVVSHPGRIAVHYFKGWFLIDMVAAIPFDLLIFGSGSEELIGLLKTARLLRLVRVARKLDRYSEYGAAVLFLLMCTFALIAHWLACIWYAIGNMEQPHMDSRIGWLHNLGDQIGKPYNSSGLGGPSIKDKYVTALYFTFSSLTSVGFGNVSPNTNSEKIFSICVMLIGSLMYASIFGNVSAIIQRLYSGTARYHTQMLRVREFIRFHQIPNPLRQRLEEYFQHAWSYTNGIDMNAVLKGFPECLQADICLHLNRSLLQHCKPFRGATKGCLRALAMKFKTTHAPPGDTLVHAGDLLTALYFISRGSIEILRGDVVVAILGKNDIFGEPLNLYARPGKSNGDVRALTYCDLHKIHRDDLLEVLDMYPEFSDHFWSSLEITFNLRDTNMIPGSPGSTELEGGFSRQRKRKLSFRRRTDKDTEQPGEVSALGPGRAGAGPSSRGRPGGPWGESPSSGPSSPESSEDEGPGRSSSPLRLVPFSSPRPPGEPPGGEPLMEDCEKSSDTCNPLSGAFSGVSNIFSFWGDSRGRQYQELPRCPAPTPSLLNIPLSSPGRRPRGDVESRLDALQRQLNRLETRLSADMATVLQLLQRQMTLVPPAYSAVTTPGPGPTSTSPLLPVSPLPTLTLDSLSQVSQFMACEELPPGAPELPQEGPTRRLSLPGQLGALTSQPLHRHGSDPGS
For the molecule `O=C(/C=C/c1ccco1)NCC1(c2ccccc2)CCCC1`, the “hERG current change (%, negative = inhibition) at 1uM” value turned out to be 9.98%.
The value for `CCOc1ccc(S(=O)(=O)Nc2cccc(Cl)c2)cc1` was 8.83%; that for `Cc1ccccc1C(=O)NC1CCN(Cc2nnnn2CCc2ccccc2)CC1` was 6.17%; that for `Cc1cccc(C(=O)OCN2C(=O)c3ccccc3C2=O)c1[N+](=O)[O-]` was 15.4%.
The value for `O=C(CSC1c2ccccc2C(=O)N1c1ccccc1)N1CCOCC1` (stereo not shown) was -2.34%; that for `COc1ccc(C(=O)Nc2c(F)c(F)c(F)c(F)c2F)c(OC)c1` was 9.31%.
The value for `O=S(=O)(NCCN1CCOCC1)c1ccc2c(c1)OCCO2` was 14%.
In the case of `Br.O=C(CN1C2=NCCN2c2ccccc21)C12CC3CC(CC(C3)C1)C2`, the “hERG current change (%, negative = inhibition) at 1uM” value is on record as -47.7%.
The same measure for `COc1ccc(CC(=O)Nc2cc(C)ccn2)cc1`: 9.2%.
The value for `Cn1c(CNC(=O)CCNC(=O)c2ccccc2F)cc(=O)n(C)c1=O` was 12.3%; that for `CC(=O)Nc1nc2c(ccc3ccccc32)s1` was 15.1%; that for `Cc1ccc(CN2CCN(C(=O)CCc3ccccc3)CC2)cc1` was 5.49%.
With `CC1CCN(S(=O)(=O)c2ccc3[nH]c(=O)cc(C(=O)O)c3c2)CC1`, the “hERG current change (%, negative = inhibition) at 1uM” value is on record as 8.95%.
On to `O=C(Nc1cnccn1)c1cccs1`, for which the “hERG current change (%, negative = inhibition) at 1uM” value is on record as -3.02%.
The value for `CCc1nnc(SCC(=O)Nc2ccc(C(C)=O)cc2)nc1CC` was 8.53%; that for `COC(=O)CCC(=O)Nc1ccc(OC)cc1` was 11.5%; that for `O=C(O)Cn1c(=O)c2c3c(sc2n(Cc2ccccc2F)c1=O)CCCC3` was 10.5%.
Turning to `CSc1nnc(-c2sc3cc(C(F)(F)F)cnc3c2-c2cccnc2)n1C`, the “hERG current change (%, negative = inhibition) at 1uM” value is given as 5.39%.
The value for `Cc1ccc(COc2ccc(/C=N/NC(=O)c3ccc(CN4CCOCC4)cc3)cc2)cc1` was 10.2%.
`COc1ccccc1NC(=O)N1CCN(c2cc(-c3ccccc3)nc3ncnn23)CC1`: the “hERG current change (%, negative = inhibition) at 1uM” value is reported as -13.9%.
The same measure for `COc1ccc2cc(CCNC(=O)C3CC3)c(=O)[nH]c2c1`: 12%; for `CCOC(=O)CNC(=O)CSc1nnc(Cn2c(=O)sc3ccccc32)n1-c1ccccc1C`: 3.46%; for `CCOC(=O)COc1ccc(CCNC(C)=O)cc1`: 17.8%.
The value for `COc1ccc(/C=C/C(=O)c2ccc(O)cc2)cc1COc1ccc(F)cc1` was 6.99%; that for `COc1ccccc1C(=O)NC(C(=O)NCCc1nc2ccccc2[nH]1)=C(C)C` was 13.8%; that for `O=C1CCC(C(=O)NC2(C(=O)NC3CCCCC3)CCCCC2)N1` (stereo not shown) was 14.1%.
The same measure for `S=c1[nH]nc(CCSCc2ccccc2)n1-c1ccccc1`: 19.2%.
Take `CCC(C)(C)NC(=O)CN(CCc1cccc(C)c1)C(=O)c1csnn1`: the “hERG current change (%, negative = inhibition) at 1uM” value was 6.27%.
The same measure for `CCCCN(CCNP(=O)(OCC)OCC)CP(=O)(OCC)OCC`: -3.14%.
Consider `COC(=O)C(CCSC)NC(=O)CNC(=O)C1CCCCC1` (stereo not shown), for which the “hERG current change (%, negative = inhibition) at 1uM” value is on record as 10.7%.
The same measure for `CN(C(=O)c1ccccc1C(=O)OCC(=O)c1ccc(Br)cc1)c1ccccc1`: 14.4%.
The same measure for `Cc1cccc(CSc2ncccc2C(=O)O)c1`: 5.61%; for `CCOC(CCc1c(C)nc(NC(C)=O)[nH]c1=O)OCC`: 14.1%; for `CC(=O)N1CCC(=O)N(C(C)C)c2ccccc21`: 5.72%.
The same measure for `O=C(Nc1nc(N2C(=O)c3ccccc3C2=O)n(-c2ccccc2)n1)c1ccccc1`: 2.24%.
With `COC(c1ccccc1)c1nnc(CCC(=O)N(C)C(C2CC2)C2CC2)o1` (stereo not shown), the “hERG current change (%, negative = inhibition) at 1uM” value is 0.91%.
The value for `O=C1CN(O)C(c2ccccc2)=c2cc(Cl)ccc2=N1` was 3.47%; that for `Cc1ccc(NC(=S)N(CCN(C)C)C(C)c2cccnc2)cc1` (stereo not shown) was -3.9%.
For `Cc1ccc(NC(=O)NCc2cccnc2)cc1`, the “hERG current change (%, negative = inhibition) at 1uM” value is recorded as -15%.
The value for `O=C(C1CCN(S(=O)(=O)N2CCC3(CC2)OCCO3)CC1)N1CCc2ccccc2C1` was 11.6%; that for `CCCCN=C[C@]12CCC(O)CC1(O)CCC1[C@@H]2CC[C@]2(C)[C@H](C3C=CC(=O)O3)CCC12O` (stereo partly shown) was 19.8%.
The same measure for `COC(=O)c1ccccc1Oc1ccc(NC(=O)c2ccco2)cc1`: 2.67%.
The same measure for `CCNS(=O)(=O)c1ccc(NC(=O)c2ccc(Cn3cc(Br)cn3)o2)cc1`: 14.6%.
Consider `COc1ccc2oc(C(=O)N(C)Cc3ccc4c(c3)OCCO4)c(C)c2c1`, for which the “hERG current change (%, negative = inhibition) at 1uM” value is 9.19%.
In the case of `COc1ccc(CCNC(=O)c2ccc(C)s2)cc1OC`, the “hERG current change (%, negative = inhibition) at 1uM” value was 12.3%.
`Cc1cc2ccccc2c(=O)n1CC(=O)NCC(=O)N(C)Cc1ccccc1`: the “hERG current change (%, negative = inhibition) at 1uM” value amounted to 17.1%.
